Data from PubChem BioAssay AID1347417 (National Center for Advancing Translational Sciences (NCATS), 2020).
The campaign covered roughly 120,000 compounds. About 5,300 (4.4%) were called active. Inconclusive means that the source gave no clear call. Such entries were picked first, then a sample of the others. Calls follow the shape of the dose curve; as a rule, active = well fitted inhibition curve with a large enough effect; inconclusive = small, poorly fitted or top-dose-only effect; inactive = no such curve, though single readings can be large or run the other way. Potencies of inconclusive entries are doubtful fits and often do not repeat.

assay: qHTS Primary assay for Inhibitors of Plasmodium falciparum Dd2 growth in vitro; also: nearly all actives have a fitted effect of over 65% in size; details: P. falciparum Dd2 growth, SYBR Green, 72 h; series mostly up to 28.9 µM
Text: Malaria, a parasitic disease spread to humans through the bite of a Plasmodium infected Anopheles mosquito, continues to be a global health burden affecting millions of people, with an estimated 228 million cases and 405,000 deaths in 2018. Concerns about safety and limitations of current antimalarial treatments strongly emphasize the need to develop new therapeutic options. The scarce number of chemotypes and validated drug targets with efficacy against the liver stage, have hindered development of new antimalarials. To address this, a chemoprophylactic drug discovery effort was conducted through a combined phenotypic high-throughput asexual blood stage and liver stage screen, providing a robust foundation to identify liver-stage active lead chemotypes. Compounds were initially screened against Plasmodium falciparum Dd2 strain parasites using a in vitro SYBRGreen-1 based 72 hr proliferation assay to identify novel chemotypes to advance to liver stage assays. NIH/NCATS Early Translation Branch Assay Submitter (PI): Anton Simeonov Ph.D.
Malaria-vivax Assay Protocol: PROTOCOL TABLE (as described by Inglese et al., 2007) SEQUENCE No. (e.g., 1, 2, 3, etc.); […] (e.g., Cells, Incubation, Reagent, etc.); VALUE; DESCRIPTION SEQUENCE, Parameter, Description 1; Reagent; 3 uL complete malaria growth medium, 1536 TC treated Black clear bottom plate 2; Controls; 23 nL positive control artesunate (300 nM final) to column 1; Neutral control DMSO to columns 2-4 3; Compound; 23 nL of compounds in dose response concentration (29 uM to 0.5 nM final) 4; Reagent; 5 uL malaria infected red blood cells (2.5% hematocrit final, 0.3% parasitemia 5; Time; 72 hours at 37C (5% O2, 5% CO2, 90% N2; 95% Rh) 6; Reagent; 2 uL lysis buffer/SYBRGreen-1, 25 sec shake immediately following dispense 7; Time; ~16 hours at 37C (5% O2, 5% CO2, 90% N2; 95% Rh) 8; Detector; EnVision (PerkinElmer) bottom read at 485/14nm excitation and 535/25 nm emission NOTES (numbers refer to sequence above): 1; Complete Malaria Growth Media: 1X RPMI-1640 w/L-glutamine, 5.5g/L Albumax II, 367 uM Hypoxanthine, 25 mM HEPES, 0.25% Sodium Bicarbonate, 35 uM Gentamicin sulfate 2; Controls were added using the Kalypsis Pintool (Wako USA) equipped with 1536 pinhead 3; Compounds were added in a 7-point, titration with a high final concentration of 29 uM by Pintool from seven inter-plate titrations of library plates and two DMSO control plates at the beginning and end (see Yasgar et al., 2008). 4; Red blood cells infected with Plasmodium falciparum Dd2 parasites were used. 6; Lysis buffer: 20 mM Tris-HCl, 10 mM EDTA, 0.16% Saponin, 1.6% Triton-X, 10X SYBR Green. REFERENCE: Inglese J, Shamu CE, Guy RK. 2007. Reporting data from high-throughput screening of small-molecule libraries. Nat Chem Biol. doi:10.1038/nchembio0807-438 Yasgar A, Shinn P, Jadhav A, Auld D, Michael S, Zheng W, Austin CP, Inglese J, Simeonov A. 2008. Compound Management for Quantitative High-Throughput Screening. J Lab Autom 13:79-89. doi:10.1016/j.jala.2007.12.004
Potency is read from the fitted curve at half-maximal effect; tags tell the direction and shape of the fitted curve.

| Structure (SMILES) | Potency | outcome |
| --- | --- | --- |
| Cc1cnc(CCNC(=O)c2cc(CN3CCOCC3)on2)n1CC1CC1 | inactive | – |
| O=C(NCCC1=CCCCC1)c1ccc2c(c1)N(Cc1cccc(Cl)c1)C(=O)c1ccccc1S2=O (configuration not stated) | inconclusive: 10 µM [inhibitor, single point] | – |
| CCCCC(=O)NC1CC(=O)N(c2ccc3c(c2)OCCO3)C1 (configuration not stated) | inactive | – |
| COc1ccc(CNC(=O)Cn2c(=O)nc(-c3ccccc3)c3ccccc32)cc1OC | inconclusive: 20 µM [inhibitor, partial curve, poor fit] | – |
| C[C@H]1[C@@H]2[C@@H](O)C([C@H](C)C(=O)N3CCCC3)CC[C@@]2(C)CC[C@@H]1NC(=O)c1ccccc1 (some centres not stated) | inconclusive: 11.2 µM [inhibitor, partial curve, poor fit] | – |
| Cc1cc(OCC(=O)Nc2ncn[nH]2)ccc1Cl | inconclusive: 0.199 µM [inhibitor, full curve, poor fit] | – |
| Cc1nc(N2CCN(C(=O)c3ccc4c(c3)OCO4)CC2)cc(C(F)(F)F)n1 | inactive | – |
| C[C@H](C(=O)N1CCCC1)[C@@H]1CC[C@@]2(C)Cc3sc(-c4ccsc4)nc3[C@@H](C)[C@@H]2[C@H]1O | inconclusive: 20 µM [inhibitor, single point] | – |
| COc1cncc(CN2CCC3(CC2)C(=O)Nc2cc(OCC4CC4)c(OC)cc23)c1 | inconclusive: 0.891 µM [inhibitor, partial curve, poor fit] | – |
| O=C(NCc1ccc(F)cc1)c1nc(-c2cccnc2)c2cnccn12 | inconclusive: 25.1 µM [inhibitor, partial curve, poor fit] | – |
| O=C(c1ccc(F)c(F)c1)N1CCN(c2cc(-c3cccs3)[nH]n2)CC1 | inactive | – |
| COc1ccc(-c2cc(-c3c(C)noc3C)c3cncn3c2)cc1OC | active: 7.08 µM | – |
| CC1CCCN1c1ncnc2c1CN(c1cccnc1)C(=O)CN2C (configuration not stated) | inactive | – |
| Cc1ccc(C2Cn3nnc(-c4nc(C5CCCCC5)no4)c3CO2)c(C)c1 (configuration not stated) | inactive | – |
| CC1=C[C@@H](CNCc2ccc(C#N)cc2)[C@H](C(C)C)C[C@H]1Cc1nnc(-c2cccnc2)o1 | inactive | – |
| Cc1ccc(OCc2nc(C3CN(C(=O)c4cc(C)n(C)n4)C3)no2)cc1 | inconclusive: 11.2 µM [inhibitor, single point] | – |
| c1cc(N2CCOCC2)ncc1-c1noc([C@@H]2CCCN2)n1 | inactive | – |
| COc1cccc(C2C(C(=O)Nc3ccc(C)cc3C)=C(C)Nc3c(C(=O)Nc4ccccc4)cnn32)c1 (configuration not stated) | inconclusive: 1.12 µM [inhibitor, full curve, poor fit] | – |
| COC(=O)c1ccc(C2c3c(-c4ccccc4O)n[nH]c3C(=O)N2Cc2cccnc2)cc1 (configuration not stated) | inconclusive: 17.8 µM [inhibitor, single point] | – |
| CN(CCc1ccccn1)[C@H]1[C@@H]2OC[C@@H](O2)[C@@H](NCc2ccc(-c3ccccc3)cc2)[C@@H]1O | inconclusive: 14.1 µM [inhibitor, partial curve, poor fit] | – |
| O=C(c1cc(-c2ccccc2)n[nH]1)N1CCCC(Cc2noc(-c3cccnc3)n2)C1 (configuration not stated) | inactive | – |
| Cc1nc([C@@H]2CN(C(=O)c3nccc4ccccc34)C[C@H]2C(N)=O)n[nH]1 | inconclusive: 0.158 µM [inhibitor, full curve, poor fit] | – |
| CC(=O)c1ccc(NC(=O)c2nc3ccccc3nc2N2CCCCC2)cc1 | inactive | – |

| Structure (SMILES) | Potency | outcome |
| --- | --- | --- |
| COC(=O)[C@@H]1Cc2c([nH]c3ccccc23)[C@H]2C[C@@H](NCc3cccnc3)C[C@@H](c3ccc(C(F)(F)F)cc3)N21 | inconclusive: 10 µM [inhibitor, partial curve] | – |
| O=C1COc2ccc(Nc3cccnc3)nc2CN1Cc1ccc(C(F)(F)F)cc1 | inconclusive: 1.58 µM [inhibitor, partial curve, poor fit] | – |
| COc1cccc(CNC(=O)c2ccc3c(c2)c(C)c(C)n3Cc2ccccc2)c1 | inactive | – |
| Cc1nnc(N2CCC(C(=O)NC3CCCCC3)CC2)c2nn(-c3ccccc3)c(C)c12 | inactive | – |
| COCC(=O)N[C@H]1C[C@@H](CO)N(Cc2ccc(C#N)cc2)C1 | inactive | – |
| CCCNC(=O)Cn1cccc1-c1nc(-c2ccc(OC)c(F)c2)no1 | inconclusive: 1.12 µM [inhibitor, single point] | – |
| Cc1cc(S(=O)(=O)N2CCCC2c2noc(COc3ccc(F)cc3)n2)ccc1F (configuration not stated) | inconclusive: 10 µM [inhibitor, single point] | – |
| COC(=O)C1=C(C)N=C2SC=C(CC(=O)NCc3ccco3)N2C1c1cccc(OC)c1 (configuration not stated) | inconclusive: 1.58 µM [inhibitor, partial curve, poor fit] | – |
| COc1ccc(OC)c(NS(=O)(=O)c2ccc3c(c2)C(C)(C)C(=O)N3C)c1 | inconclusive: 11.2 µM [inhibitor, single point] | – |
| COc1cc(Cl)c(C)cc1NC(=O)C1CCN(c2nc3ccccc3n3cccc23)CC1 | inconclusive: 11.2 µM [inhibitor, single point] | – |
| COc1ccc(CCNC(=O)C(=O)Nc2ccccc2F)cc1 | inactive | – |
| COc1cccc(-c2cccc(C(=O)N3CCC4(CCCN(C)C4=O)C3)c2)c1 (configuration not stated) | inconclusive: 5.01 µM [inhibitor, full curve, poor fit] | – |
| CC(=O)c1ccc(NC(=O)O[C@@H]2CO[C@H]3[C@@H]2OC[C@@H]3NC(=O)c2ccc(C)cc2)cc1 | inactive | – |
| O=C(N1CCCCCC1CN1CCOCC1)C1(c2ccccc2)CC1 (configuration not stated) | active: 10 µM | – |
| O=C(Nc1ccc2c(N3CCCC3)ncnc2c1)c1ccccc1Cl | active: 12.6 µM | – |
| CCC(=O)N1CCc2c(sc3ncnc(N(C)Cc4ccccc4)c23)C1 | inconclusive: 4.47 µM [inhibitor, partial curve, poor fit] | – |
| O=C(Nc1ccc(Cl)cc1C(F)(F)F)N1CCC(n2cnnc2C2CC2)C1 (configuration not stated) | inconclusive: 2 µM [inhibitor, partial curve, poor fit] | – |
| CN(c1ccccc1)c1ccc2nnc(-c3cc(C(=O)NCc4ccncc4)ccn3)n2n1 | inactive | – |
| CC1CCN(CC2CCCCCN2C(=O)c2ccoc2)CC1 (configuration not stated) | inactive | – |
| CC1(C)C(=O)N(CC2CCOCC2)[C@H]2CN(Cc3ccccc3O)C[C@H]2[S+]1(=O)[O-] | inconclusive: 0.501 µM [inhibitor, full curve, poor fit] | – |
| CCC(=O)N1CCc2cc(Br)cc(S(=O)(=O)CCC(=O)NCc3ccccc3OC)c21 | inconclusive: 17.8 µM [inhibitor, single point] | – |
| CCCCN(CC)C(=O)CSc1nc2n[nH]c(C)c2c(=N)n1-c1cccc(Cl)c1 | inconclusive: 12.6 µM [inhibitor, single point] | – |
| CCOC(=O)c1[nH]c(C)c(CCC(=O)N2CCN(c3cccc(OC)c3)CC2)c1C | active: 3.98 µM | – |

| Structure (SMILES) | Potency | outcome |
| --- | --- | --- |
| O=C(CCC[C@H]1NC[C@@H]2C[C@H]1CN(Cc1ccccc1)C2)N1CCN(C2CCCCC2)CC1 | inconclusive: 17.8 µM [inhibitor, single point] | – |
| CCn1cc(C(=O)N2C[C@@H](COC)[C@H](c3nc(C4CC4)no3)C2)cn1 | inactive | – |
| CCOCCCNC(=O)N1c2ccccc2CC1c1nc(C(C)C)no1 (configuration not stated) | – | inactive [at 5.79 µM] |
| CCOc1ccc2c(n1)CCN(C(=O)Cc1ccc(C)cc1)C2 | inconclusive: 17.8 µM [inhibitor, single point] | – |
| O=C(NCc1ccccn1)C1Cn2cccc2C(=O)N1Cc1ccccc1 (configuration not stated) | inactive | – |
| c1ccc(-n2nccc2CN2CCC3(CCNCC3)C2)cc1 | inactive | – |
| O=C(c1cnc2cc(-c3ccccc3)nn2c1)c1cc([N+](=O)[O-])ccc1O | inconclusive: 7.08 µM [inhibitor, partial curve, poor fit] | – |
| O=C(C1CCCN(S(=O)(=O)c2cccc3nonc23)C1)N1CCN(c2cccc(Cl)c2)CC1 (configuration not stated) | inconclusive: 11.2 µM [inhibitor, single point] | – |
| CC(C)CCN1CCCC12Cc1ccccc1CNC2=O (configuration not stated) | inconclusive: 14.1 µM [inhibitor, single point] | – |
| CCc1ccc(CSc2nc(-c3ccccc3OC)nc3c2Cc2c(CO)cnc(C)c2O3)cc1 | active: 3.16 µM | – |
| CN1CC(=O)N(C2CCNCC2)Cc2c1ncnc2N1CCCC1CO (configuration not stated) | inactive | – |
| CN1CCc2c([nH]c3ccccc23)C12CCN(C(=O)c1ccc3ncccc3c1)CC2 | inconclusive: 3.98 µM [inhibitor, single point] | – |
| COc1ccc(S(=O)(=O)NCCc2nnc3ccc(SCC(=O)Nc4ccc(C(F)(F)F)cc4)nn23)cc1 | inconclusive: 11.2 µM [inhibitor, single point] | – |
| Cc1noc(C)c1-c1nccc2c(=O)cc(N(C)C3CCOCC3)oc12 | inactive | – |
| CCCN1CCC2(CCN(C(=O)OC)CC2)Oc2ccccc21 | inactive | – |
| Cc1ccccc1C(=O)NC1CCN(c2cc(C(F)(F)F)ncn2)CC1 | inactive | – |
| COc1ccc(CNC(=O)Cn2ccc3cc(S(=O)(=O)N4CCCCC4)ccc32)c(OC)c1 | inconclusive: 11.2 µM [inhibitor, single point] | – |
| COc1ccccc1CNC(=O)CCc1c(C)nc2cc(-c3ccccc3OC)nn2c1C | inconclusive: 12.6 µM [inhibitor, single point] | – |
| CCOC(=O)C1CCN(C(=O)C2COC3(CCCCC3)N2C(=O)c2ccccc2)CC1 (configuration not stated) | inconclusive: 11.2 µM [inhibitor, partial curve, poor fit] | – |
| COC1C(=O)N(c2cccc(F)c2)C12CCN(C(=O)c1ocnc1C)CC2 (configuration not stated) | inactive | – |
| COCC1CCCN(Cc2nc(-c3ccccc3Cl)oc2C)C1 (configuration not stated) | inconclusive: 17.8 µM [inhibitor, partial curve, poor fit] | – |
